In the supplement of paper PMC10126150:
Values marked as one replicate rest on one cluster of the flow cell; about a third of the high ones do not repeat.

Test system: ATP
Test: switch fluorescence ratio, 500 uM ATP over buffer (Cy3 cluster intensity, sum of 5 cycles each) (fold (ratio)); higher = stronger signal-on switching upon ATP binding; sequences stand for … in TCGTCGGCAGCGTCAGATGTGTATAAGAGACAGTTTTTTTTTTTTTTTTTTTTTTTTT…TC
Conditions: aptamer strand: ATP DNA aptamer (quencher-CACCTGGGGGAGTATTGCGGAGGAAGG + anchor), 100 nM annealed; ATP concentration: 500 uM; one replicate
Outline: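 Switching-strand clusters labelled with Cy3 on a modified Illumina MiSeq flow-cell were annealed to 100 nM quencher-labelled ATP aptamer, imaged in selection buffer, and re-imaged after 15 min with 500 uM ATP at 22 °C. This was done over five cycles with NaOH stripping and re-annealing in between. The fluorescence ratio is summed target-cycle over summed buffer-cycle Cy3 intensity per cluster, averaged per switch-domain sequence, excluding clusters outside 100-1000 RFU.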
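Note: ATP exposure 15 min at 22 °C before imaging.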

Sequence | switch fluorescence ratio
ATTAGTATGT | 0.965
ATTAGTGCA | 0.995
ATTATACGAA | 1.04
ATTATACGGT | 1
ATTATATTGT | 0.97
ATTATCACCT | 1.16
ATTATCCGGC | 0.999
ATTATCCTGT | 0.999
ATTATCTGCT | 1.01
ATTATGATTA | 1
ATTATTGAAC | 1.02
ATTATTGAT | 0.992
ATTCACGGTT | 0.952
ATTCACTGTG | 1
ATTCAGAGTC | 1.06
ATTCAGTACT | 0.941
ATTCATCCCG | 1.02
ATTCCACATA | 1.06
ATTCCATGAG | 1.01
ATTCCCAGCG | 1.17
ATTCCCTTCT | 1.02
ATTCGACTAG | 0.945
ATTCGAGGAA | 1.01
ATTCGAGTCA | 0.99
ATTCGATCG | 0.964
ATTCGCACAG | 1.11

Sequence | switch fluorescence ratio
ATTCGCGATT | 1.07
ATTCGCTAGC | 1.12
ATTCGGAAAC | 1.22
ATTCGTAGT | 0.987
ATTCGTTAGG | 0.97
ATTCTAATGC | 1.03
ATTCTAGAAT | 0.929
ATTCTAGCTT | 0.994
ATTCTAGGGG | 0.937
ATTCTCCCGG | 1.37
ATTCTCTATG | 0.977
ATTCTGAAAC | 1.07
ATTCTGACGT | 1.18
ATTCTGAGCC | 1.07
ATTCTGTAGT | 1.06
ATTCTGTCCG | 1.15
ATTCTTATAA | 1.02
ATTGAATACA | 1.02
ATTGACATTA | 0.982
ATTGACTAT | 1.01
ATTGACTCTA | 1.11
ATTGAGCCGA | 1.05
ATTGATCCGA | 0.974
ATTGATGAAA | 1.04
ATTGATGGGT | 1.02
ATTGATGTAT | 1

Sequence | switch fluorescence ratio
ATTGATTTGA | 0.989
ATTGCACGAC | 1.18
ATTGCAGGAT | 0.985
ATTGCTAGTC | 0.933
ATTGCTCAAA | 0.98
ATTGCTCGGG | 0.986
ATTGGAGTCA | 1.02
ATTGGCTCCG | 1.1
ATTGGCTCGC | 1
ATTGGGAATT | 1.02
ATTGGGATTG | 1.01
ATTGGGGTA | 0.985
ATTGGGTCAC | 1.01
ATTGGTAATG | 0.987
ATTGGTCCGG | 0.993
ATTGGTTCC | 1.11
ATTGGTTCTC | 1.02
ATTGTAACTC | 0.958
ATTGTAAGCA | 1.04
ATTGTAAGCC | 1.03
ATTGTCAAAA | 0.99
ATTGTCGATT | 1.02
ATTGTGTAGA | 1.06
ATTGTTCTAG | 0.991
ATTGTTGCCC | 0.969
ATTGTTGCTA | 1.04

Sequence | switch fluorescence ratio
ATTGTTGGAC | 1.01
ATTTAAACAC | 0.979
ATTTAACGCG | 1.06
ATTTAATACC | 1.02
ATTTACATTC | 1.03
ATTTAGACCG | 0.951
ATTTAGATGA | 0.988
ATTTAGATTG | 1
ATTTAGGAAA | 1
ATTTAGTTCA | 1.04
ATTTATACTT | 0.991
ATTTATAGCC | 0.999
ATTTATCAGT | 0.952
ATTTATCGGT | 0.999
ATTTATCTCT | 0.98
ATTTATCTT | 1.02
ATTTATGGCG | 1.03
ATTTCAACCA | 0.961
ATTTCAAGGG | 0.97
ATTTCGAGAT | 1.01
ATTTCGCTTA | 0.967
ATTTCGGCA | 1.02
ATTTCGGTGT | 1.38
ATTTCGTCTG | 0.984
ATTTCTTTGG | 1.05
ATTTGAGTGA | 0.984

Sequence | switch fluorescence ratio
ATTTGCAGAC | 1.32
ATTTGCAGCT | 0.976
ATTTGGCTTC | 0.977
ATTTGGGCGT | 1
ATTTGGGTTC | 0.985
ATTTGGTGAT | 0.986
ATTTGTATCT | 1.01
ATTTGTATTA | 0.962
ATTTGTTGC | 1.01
ATTTTAAAAC | 1.01
ATTTTACAGA | 1.04
ATTTTATTA | 1.02
ATTTTATTT | 1.01
ATTTTCAAGC | 0.945
ATTTTCATA | 0.999
ATTTTCGATC | 1.02
ATTTTCGT | 0.95
ATTTTGGGAG | 0.983
ATTTTGGGT | 1.01
ATTTTTCACA | 1.01
ATTTTTTT | 0.987
CAAAAAATCA | 1.02
CAAAAACCTC | 1.14
CAAAAATGTA | 0.996
CAAAACAGCC | 1.09
CAAAAGAATT | 0.984

Sequence | switch fluorescence ratio
CAAAAGGTAT | 1.01
CAAAAGTCTG | 0.975
CAAAATCAAT | 0.966
CAAAATGGAG | 0.968
CAAACAAACC | 1.03
CAAACAGAAA | 1.01
CAAACATATC | 1.02
CAAACATCTT | 1.04
CAAACATGA | 0.993
CAAACCCTGC | 1.15
CAAACGCGCT | 1.16
CAAACTTAGT | 1.02
CAAAGATATC | 1.02
CAAAGATTC | 0.957
CAAAGCTTG | 1
CAAAGGATCT | 0.992
CAAAGGGAAT | 1.02
CAAAGGGAGT | 1.08
CAAAGGGTAT | 0.956
CAAAGGTAGC | 0.96
CAAAGGTCTT | 1.06
CAAAGGTGCT | 4.62
CAAAGTGGCG | 1.02
CAAAGTTAG | 1.05
CAAATAGGGA | 0.991
CAAATATAGG | 1

Sequence | switch fluorescence ratio
CAAATATTAT | 1.01
CAAATATTCG | 0.985
CAAATATTGG | 1.01
CAAATCATGG | 1.02
CAAATCTCA | 0.974
CAAATCTGAG | 1.03
CAAATGACAA | 0.964
CAAATGTTAC | 1.05
CAAATTAAAC | 1.06
CAAATTCTCC | 1.11
CAACAACATG | 1.02
CAACACCATT | 0.992
CAACAGACAG | 1.03
CAACAGCTAT | 1.21
CAACGACAAA | 1.06
CAACGCGCAC | 2.6
CAACGGTAGG | 1.02
CAACGTGAG | 0.978
CAACGTGGTT | 0.977
CAACTACTGC | 0.988
CAACTGTTGC | 1
CAACTTAGGT | 0.977
CAACTTTTGG | 1.02
CAAGAAAGGA | 0.989
CAAGAAGCGA | 1.03
CAAGAAGTAG | 0.955

Sequence | switch fluorescence ratio
CAAGACCTGC | 1.03
CAAGAGAGAC | 1.02
CAAGAGATCA | 1.03
CAAGAGTTCT | 0.963
CAAGCCCTC | 1.02
CAAGCGCCGT | 0.985
CAAGCGCTCG | 0.961
CAAGCGGCTA | 1.04
CAAGCTAGAA | 1.03
CAAGCTAGTT | 0.976
CAAGCTTGAG | 1.07
CAAGGAATTC | 0.977
CAAGGCGAC | 1.04
CAAGGGACCA | 1.05
CAAGGGCTGC | 1.03
CAAGGGTCTT | 1.01
CAAGGGTTAT | 1
CAAGGTAACA | 0.989
CAAGGTACAA | 1.05
